# Numbering of substitutions follows the chain as printed; changes in the protein carry UniProt numbers. The list shows a part of the results.
# T1: RBFOX1 RRM RbFoxmut (Fox-RRM*) (Homo sapiens, UniProt Q9NWB1 109-208, R118D;E147R;N151S;E152T)
# T1 sequence: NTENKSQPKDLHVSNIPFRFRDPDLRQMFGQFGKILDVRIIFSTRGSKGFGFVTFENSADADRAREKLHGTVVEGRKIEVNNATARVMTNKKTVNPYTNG
# B1: GCGGUCA (DNA:RNA)
# RNA: GGGAGACCGGAAUUCAGAUUGUCCGCGGUCAUUAAAUCCCGUCGUAGCCACCA
# DNA 1: CAATCTGAATTCCGGTCTCCC
# DNA 2: TGGTGGCTACGACGGGATT
# B2: GACGUUA (DNA:RNA)
# RNA: B1 RNA with C26A, G27C, C30U
# DNA 1: CAATCTGAATTCCGGTCTCCC
# DNA 2: TGGTGGCTACGACGGGATT
# B3: UUUGGCC (DNA:RNA)
# RNA: B1 RNA with G25U, C26U, G27U, U29G, A31C
# DNA 1: CAATCTGAATTCCGGTCTCCC
# DNA 2: TGGTGGCTACGACGGGATT
# B4: CCUCUGU (DNA:RNA)
# RNA: B1 RNA with G25C, G27U, G28C, C30G, A31U
# DNA 1: CAATCTGAATTCCGGTCTCCC
# DNA 2: TGGTGGCTACGACGGGATT
# B5: CGCGUUU (DNA:RNA)
# RNA: B1 RNA with G25C, C26G, G27C, C30U, A31U
# DNA 1: CAATCTGAATTCCGGTCTCCC
# DNA 2: TGGTGGCTACGACGGGATT
# B6: UGGGUUU (DNA:RNA)
# RNA: B1 RNA with G25U, C26G, C30U, A31U
# DNA 1: CAATCTGAATTCCGGTCTCCC
# DNA 2: TGGTGGCTACGACGGGATT
# B7: UCAGCCU (DNA:RNA)
# RNA: B1 RNA with G25U, G27A, U29C, A31U
# DNA 1: CAATCTGAATTCCGGTCTCCC
# DNA 2: TGGTGGCTACGACGGGATT
# B8: CAGGCUC (DNA:RNA)
# RNA: B1 RNA with G25C, C26A, U29C, C30U, A31C
# DNA 1: CAATCTGAATTCCGGTCTCCC
# DNA 2: TGGTGGCTACGACGGGATT
# B9: GCCCUUC (DNA:RNA)
# RNA: B1 RNA with G27C, G28C, C30U, A31C
# DNA 1: CAATCTGAATTCCGGTCTCCC
# DNA 2: TGGTGGCTACGACGGGATT
# B10: AACGUGC (DNA:RNA)
# RNA: B1 RNA with G25A, C26A, G27C, C30G, A31C
# DNA 1: CAATCTGAATTCCGGTCTCCC
# DNA 2: TGGTGGCTACGACGGGATT
# B11: CGCCGUC (DNA:RNA)
# RNA: GGGAGACCGGAAUUCAGAUUGUCCCGCCGUCUUAAAUCCCGUCGUAGCCACCA
# DNA 1: CAATCTGAATTCCGGTCTCCC
# DNA 2: TGGTGGCTACGACGGGATT
# B12: AGAAGAU (DNA:RNA)
# RNA: B11 RNA with C25A, C27A, C28A, U30A, C31U
# DNA 1: CAATCTGAATTCCGGTCTCCC
# DNA 2: TGGTGGCTACGACGGGATT
# B13: AGCGUCA (DNA:RNA)
# RNA: B1 RNA with G25A, C26G, G27C
# DNA 1: CAATCTGAATTCCGGTCTCCC
# DNA 2: TGGTGGCTACGACGGGATT
# B14: CAGCAAC (DNA:RNA)
# RNA: B11 RNA with G26A, C27G, G29A, U30A
# DNA 1: CAATCTGAATTCCGGTCTCCC
# DNA 2: TGGTGGCTACGACGGGATT
# B15: UCAACUC (DNA:RNA)
# RNA: B11 RNA with C25U, G26C, C27A, C28A, G29C
# DNA 1: CAATCTGAATTCCGGTCTCCC
# DNA 2: TGGTGGCTACGACGGGATT
# B16: AGUCUGA (DNA:RNA)
# RNA: B11 RNA with C25A, C27U, G29U, U30G, C31A
# DNA 1: CAATCTGAATTCCGGTCTCCC
# DNA 2: TGGTGGCTACGACGGGATT
# B17: UCUCGCG (DNA:RNA)
# RNA: B11 RNA with C25U, G26C, C27U, U30C, C31G
# DNA 1: CAATCTGAATTCCGGTCTCCC
# DNA 2: TGGTGGCTACGACGGGATT
# B18: AAAUCUU (DNA:RNA)
# RNA: B11 RNA with C25A, G26A, C27A, C28U, G29C, C31U
# DNA 1: CAATCTGAATTCCGGTCTCCC
# DNA 2: TGGTGGCTACGACGGGATT
# B19: UCUCUCC (DNA:RNA)
# RNA: B1 RNA with G25U, G27U, G28C, A31C
# DNA 1: CAATCTGAATTCCGGTCTCCC
# DNA 2: TGGTGGCTACGACGGGATT
# B20: GUAGAGA (DNA:RNA)
# RNA: B1 RNA with C26U, G27A, U29A, C30G
# DNA 1: CAATCTGAATTCCGGTCTCCC
# DNA 2: TGGTGGCTACGACGGGATT
# Biological target: T1, RBFOX1 RRM RbFoxmut (Fox-RRM*)
# Assay: EMSA; HiTS-Eq, 1 nM pool, 10 min; buffer printed only for the single-RNA assays: 10 mM Tris pH 7.5, 150 mM NaCl, 3.4 mM EDTA, 0.001% NP-40, 30 C
# Conditions: tags: His6 N-terminal (pET28a); label: 5' 32P
# Outline: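 These values rest on relative association constants, computed from read-count changes of each RNA species versus the control reaction and normalised to the cognate motif. Reads came from free RNA recovered by 8% native PAGE after purified RbFox RRM (wild type or mutant) at increasing concentrations was equilibrated for 10 min in 50 µL with 1 nM of a 5′-radiolabelled pool with 7 randomized nucleotides and DNA-annealed flanks.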
row,Binder,binding signal
1,B1,0.118 KA relative to UGCAUGU
2,B2,0.124 KA relative to UGCAUGU
3,B3,0.282 KA relative to UGCAUGU
4,B4,0.108 KA relative to UGCAUGU
5,B5,0.102 KA relative to UGCAUGU
6,B6,0.106 KA relative to UGCAUGU
7,B7,0.0606 KA relative to UGCAUGU
8,B8,0.0788 KA relative to UGCAUGU
9,B9,0.0457 KA relative to UGCAUGU
10,B10,0.117 KA relative to UGCAUGU
11,B11,0.0985 KA relative to UGCAUGU
12,B12,0.0749 KA relative to UGCAUGU
13,B13,0.101 KA relative to UGCAUGU
14,B14,0.0753 KA relative to UGCAUGU
15,B15,0.0504 KA relative to UGCAUGU
16,B16,0.0658 KA relative to UGCAUGU
17,B17,0.123 KA relative to UGCAUGU
18,B18,0.0581 KA relative to UGCAUGU
19,B19,0.0318 KA relative to UGCAUGU
20,B20,0.102 KA relative to UGCAUGU
